# Data from the supplement of paper PMC4166925.
# ± gives the standard deviation of the averaged measurements. The full ranking holds about 33,000 sequences; the median of “E-score (dimensionless, -0.5 to 0.5)” is about -0.049, and the highest 2% start at about 0.37. The list shows a part of the results.
# Test system: T1, PmTbr T-box DNA-binding domain (GST fusion)
# T1 sequence: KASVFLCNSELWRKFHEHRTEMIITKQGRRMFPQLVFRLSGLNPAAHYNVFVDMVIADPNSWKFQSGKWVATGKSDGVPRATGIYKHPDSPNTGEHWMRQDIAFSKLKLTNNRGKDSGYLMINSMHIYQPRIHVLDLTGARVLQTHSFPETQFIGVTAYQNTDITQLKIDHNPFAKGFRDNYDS
# Test: PBM E-score of 8-mer (E-score (dimensionless, -0.5 to 0.5)); Tbr is Tbrain of the sea star Patiria miniata (Pm) or the sea urchin Strongylocentrotus purpuratus (Sp); higher = stronger binding preference; most listed sequences are background and not binding sites
# Conditions: the construct has about 5 more residues each side
# Summary of the method: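 Using the Universal PBM Analysis Suite, every ungapped 8-mer received an enrichment E-score averaged over duplicate arrays. Probe intensities came from double-stranded Universal Agilent oligonucleotide arrays incubated with 200 nM GST-fused Tbr T-box DNA-binding domain in PBS (pH 7.5). That protein was expressed in BL21 E. coli at 20 °C and purified by glutathione affinity chromatography.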
row,Sequence,PBM E-score of 8-mer
1,AATTGCAA,0.0376 ± 0.09
2,ACCGACTG,-0.101 ± 0.099
3,AACAAAAC,0.0319 ± 0.0046
4,ATAACAGA,-0.043 ± 0.07
5,CAGTAGGA,-0.0351 ± 0.022
6,AGGGTTGA,-0.0645 ± 0.051
7,AAATCCTT,-0.0952 ± 0.035
8,CACCGGTC,-0.201 ± 0.031
9,TACCGGCA,-0.219 ± 0.006
10,CTCGAATC,-0.0157 ± 0.0079
11,CCCGGGCA,-0.0324 ± 0.079
12,AGACCGGG,-0.218 ± 0.0096
13,ACGCAAGG,0.166 ± 0.0072
14,AGCGCTAG,0.245 ± 0.0052
15,CTACCTCA,-0.0934 ± 0.036
16,CATGTCCG,-0.136 ± 0.059
17,CCGGACGA,-0.199 ± 0.071
18,CCTTCAGA,-0.202 ± 0.057
19,CACACGCG,0.206 ± 0.0048
20,GAGATTCC,0.00974 ± 0.062
21,AATCTTCC,-0.0965 ± 0.084
22,ATGTTAGG,-0.186 ± 0.073
23,AGAAGTCT,-0.181 ± 0.015
24,CCATTAGA,-0.208 ± 0.051
25,ATCTAATG,-0.143 ± 0.031

row,Sequence,PBM E-score of 8-mer
1,CTACATTA,-0.1884 ± 0.0012
2,CACAAACA,0.0667 ± 0.018
3,AGAACACC,0.181 ± 0.0068
4,ACACAAGA,-0.0353 ± 0.01
5,ATTACGAC,-0.156 ± 0.12
6,GAGTCCCA,-0.379 ± 0.061
7,AGTTAGGG,-0.128 ± 0.021
8,CCCGTTCC,-0.0429 ± 0.011
9,AAACTTAA,-0.075 ± 0.092
10,AATAGGAG,-0.292 ± 0.0088
11,GACGCAGC,-0.0729 ± 0.018
12,TAGAAAGA,-0.238 ± 0.0053
13,AGAAGCGC,0.115 ± 0.05
14,AATTGAAG,-0.274 ± 0.11
15,ACTAGGAG,-0.0412 ± 0.067
16,ACTCTTAC,-0.0593 ± 0.074
17,CGGTCCGA,-0.184 ± 0.019
18,AAGTGTAG,0.147 ± 0.012
19,AAAAAGTG,0.23 ± 0.066
20,GTGTACGA,-0.00033 ± 0.037
21,ACAAGCAC,0.0252 ± 0.13
22,GCCCAGAC,-0.0954 ± 0.024
23,CCTGAAAA,0.0211 ± 0.0084
24,ATAGTGAT,0.043 ± 0.0019
25,CCGGTCGC,0.163 ± 0.0025

row,Sequence,PBM E-score of 8-mer
1,AATAAGTA,-0.116 ± 0.028
2,AGATTTGA,-0.0282 ± 0.021
3,GCGCCCTA,0.108 ± 0.035
4,ATCTTTCA,-0.1677 ± 0.0002
5,AGTCTTGC,-0.118 ± 0.017
6,AGTCCAAC,0.0467 ± 0.027
7,GGGGTTCA,-0.0121 ± 0.033
8,AAGCCCTT,-0.17 ± 0.078
9,AGGGGACG,-0.174 ± 0.07
10,CATACCCA,-0.203 ± 0.081
11,CTGGTTCA,-0.0379 ± 0.045
12,AGAACAAC,-0.0883 ± 0.08
13,CGACACTA,0.32 ± 0.008
14,CATTTATA,-0.12 ± 0.061
15,GCCGTGGA,-0.126 ± 0.0073
16,ATCGAGAC,0.0206 ± 0.045
17,AGCCATAT,-0.145 ± 0.012
18,ATCGTGCA,-0.108 ± 0.049
19,CAGGTTCA,-0.0437 ± 0.0035
20,CTGGACTA,-0.303 ± 0.006
21,CGTGTGAA,0.4524 ± 0.0013
22,GCGATCTA,0.0135 ± 0.028
23,CCAAGGAG,-0.211 ± 0.0077
24,CTCTGGTC,-0.149 ± 0.043
25,AAGGCAGA,-0.18 ± 0.0043

row,Sequence,PBM E-score of 8-mer
1,GTCTCCAC,-0.18 ± 0.0097
2,CCCTATAA,-0.257 ± 0.0061
3,ACGTACTC,0.061 ± 0.028
4,TCCATAAA,-0.369 ± 0.028
5,CGATCCTC,0.066 ± 0.012
6,AGATAATC,-0.0612 ± 0.033
7,GATCCAGA,0.0926 ± 0.012
8,CAGCGATA,0.0152 ± 0.0054
9,AATGGTTA,0.00267 ± 0.13
10,CCACGCCG,-0.0498 ± 0.0044
11,AAGATTCA,-0.152 ± 0.029
12,AAGACTAT,-0.183 ± 0.075
13,CAGCCTAA,0.0947 ± 0.055
14,AAGGGACT,-0.124 ± 0.021
15,GACACAGA,0.0762 ± 0.007
16,ACGGACAC,0.21 ± 0.019
17,CTCCTCGA,-0.0253 ± 0.066
18,CTTCGCGC,0.3742 ± 0.0014
19,CAACACGG,0.0435 ± 0.063
20,CCAACTAC,0.0856 ± 0.023
21,CCATCGAG,0.00702 ± 0.096
22,TATTAATA,-0.273 ± 0.11
23,CCGCTCAG,-0.212 ± 0.064
24,CAACATAC,0.0872 ± 0.0058
25,GAGTGCGA,0.4088 ± 0.00055

row,Sequence,PBM E-score of 8-mer
1,CTTAAGCC,-0.241 ± 0.0091
2,ACTTCACA,0.336 ± 0.011
3,CCCAACGC,0.0381 ± 0.093
4,CAGAGCAG,-0.244 ± 0.0029
5,ACAAGAAT,-0.0283 ± 0.069
6,AATTGTAC,-0.0451 ± 0.065
7,ACGGCCCG,-0.0651 ± 0.0091
8,ACTCTCTC,0.0496 ± 0.02
9,ATGCGTTG,0.11 ± 0.014
10,ACTGTTTG,0.0389 ± 0.019
11,AGTATACA,-0.0608 ± 0.012
12,GACTTAAA,-0.121 ± 0.0051
13,CTGGGAAC,-0.14 ± 0.055
14,ACTTTGGA,-0.166 ± 0.038
15,GCATCCAC,-0.102 ± 0.042
16,GGTTTAAC,0.0736 ± 0.11
17,ACTGTCCG,-0.275 ± 0.0065
18,TACAACAA,-0.0713 ± 0.1
19,CGCTGAGA,0.0477 ± 0.064
20,TGCGTACA,-0.205 ± 0.051
21,CTGTGGTA,-0.0442 ± 0.0015
22,AACCTTAC,-0.000525 ± 0.043
23,GCCAGAAA,-0.08679 ± 0.0008
24,CCATATAC,-0.00383 ± 0.065
25,CAGCAGTC,-0.0727 ± 0.028

row,Sequence,PBM E-score of 8-mer
1,ACACTTCT,0.4266 ± 0.0042
2,AGGGCGGC,-0.2 ± 0.052
3,ATTGATAG,0.0055 ± 0.008
4,CTATGAAA,-0.228 ± 0.043
5,ATATAACA,0.243 ± 0.042
6,GACACCTA,0.48906 ± 2.8e-05
7,GTTCATAA,-0.225 ± 0.022
8,AATCTACC,-0.0821 ± 0.029
9,GTCTGTTA,0.119 ± 0.0093
10,AGGTACTG,-0.125 ± 0.028
11,GGGACCAC,-0.165 ± 0.049
12,ACGGAGAT,-0.0953 ± 0.071
13,AAATTAAC,0.232 ± 0.073
14,AGCCGATG,-0.0347 ± 0.075
15,ATTAGACA,0.02 ± 0.032
16,TTTCGAAA,-0.043 ± 0.016
17,CCTCGTTC,-0.0464 ± 0.075
18,TATTACGA,-0.2129 ± 0.0019
19,ATCAAACA,0.0103 ± 0.0023
20,AATCCCAA,-0.188 ± 0.021
21,ATATTGAT,-0.118 ± 0.046
22,CGGGGCCA,-0.187 ± 0.019
23,CACACCTA,0.476 ± 0.009
24,ACGCATAT,0.0664 ± 0.022
25,ACTGGCAT,-0.0401 ± 0.017

row,Sequence,PBM E-score of 8-mer
1,CAATTATG,0.0282 ± 0.02
2,CATGATAA,0.00808 ± 0.0014
3,CGGCTCAG,-0.202 ± 0.059
4,TGTAGACA,0.155 ± 0.1
5,ACGCATAG,0.0992 ± 0.0014
6,CTCGGAAC,-0.259 ± 0.019
7,ATCGTGTA,-0.14 ± 0.028
8,CTGTTCTA,-0.136 ± 0.0063
9,ACGCATCT,-0.0356 ± 0.006
10,GCATGTCC,-0.097 ± 0.13
11,CAGTCGCA,0.169 ± 0.0026
12,ACCGAATC,-0.0932 ± 0.028
13,ACAAGCGC,0.0753 ± 0.029
14,CTGCCACC,0.265 ± 0.036
15,ATTTTTGA,-0.289 ± 0.044
16,AAGTGGTA,0.165 ± 0.013
17,CCTCACCA,0.141 ± 0.045
18,AAGAAATG,-0.161 ± 0.024
19,AGGGCTCG,-0.125 ± 0.058
20,ACCGAGGG,0.0441 ± 0.022
21,CCCGGGTC,0.00596 ± 0.0038
22,AGCGCGGC,0.0949 ± 0.0084
23,CGGGTAAA,-0.0337 ± 0.08
24,CTACTCTA,-0.2 ± 0.083
25,ATTTGGTA,-0.178 ± 0.0095

row,Sequence,PBM E-score of 8-mer
1,CGATTAAA,0.00579 ± 0.034
2,GATCTGAC,0.0957 ± 0.015
3,AGCGTTCC,-0.107 ± 0.076
4,CTATTGAG,0.0803 ± 0.0095
5,GATTAATC,-0.211 ± 0.095
6,CATCCTCG,-0.0724 ± 0.083
7,ATATTATG,-0.0518 ± 0.081
8,GTCGCTAA,0.3037 ± 0.0026
9,ATATGCAA,-0.128 ± 0.015
10,AACTATTA,-0.0264 ± 0.0078
11,CTGGTCCC,-0.214 ± 0.037
12,CCAACGAG,-0.193 ± 0.013
13,ACTTAATG,-0.128 ± 0.047
14,CCTTAAAG,-0.0973 ± 0.022
15,ATACAGAA,-0.0182 ± 0.007
16,CATGGCGG,-0.215 ± 0.019
17,CCGTGGCG,-0.0151 ± 0.064
18,CATTTAGG,0.0158 ± 0.075
19,AGCTGGTG,0.0595 ± 0.015
20,GCTTCGGA,-0.0828 ± 0.0049
21,CCGTTCGA,-0.159 ± 0.081
22,CGCGGCTC,0.0723 ± 0.11
23,CTGCAGAA,-0.158 ± 0.056
24,GATTATGA,-0.224 ± 0.08
25,CAAGTTCA,0.114 ± 0.007

row,Sequence,PBM E-score of 8-mer
1,CAGATGCA,-0.0618 ± 0.0046
2,AACCACGA,-0.00436 ± 0.038
3,CATAACCC,-0.215 ± 0.015
4,AGAAACAA,-0.0717 ± 0.076
5,CTTGCAAA,0.148 ± 0.0012
6,GAATTGTA,-0.0474 ± 0.078
7,CCCGCCGA,-0.191 ± 0.034
8,ACATTAAG,-0.125 ± 0.11
9,ACCGGTTA,-0.0129 ± 0.037
10,GGAGGCTA,-0.209 ± 0.016
11,CCCAAGGC,-0.117 ± 0.025
12,GTTGGGTA,-0.23 ± 0.042
13,ATAATCGC,0.0767 ± 0.055
14,CCAAAAAG,-0.0846 ± 0.0049
15,GTGTTATA,0.426 ± 0.013
16,ACCACGGG,0.0879 ± 0.013
17,AATTTTAC,-0.124 ± 0.06
18,GCCCCCCC,-0.189 ± 0.0088
19,AATTAGCT,-0.0843 ± 0.043
